The whole screen tested about 46,000 compounds, of which about 60 (0.1%) were called active. Inconclusive means that the source gave no clear call. Such entries were picked first, then a sample of the others. The call rests on the fitted dose curve; in most records, active means well fitted inhibition curve with a large enough effect; inconclusive means small, poorly fitted or top-dose-only effect; inactive means no such curve, though single readings can be large or run the other way. No potency is given beside an inconclusive call; the fits are too rough.
Test: Primary qHTS assay for Inhibitors of ovarian cancer metastasis using an organotypic tumor microenvironment (TME) model. Further: nearly all actives have a fitted effect of over 65% in size.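 On activity change, negative = inhibition: plate controls were DMSO wells for no effect and tomatine positive control wells for full effect.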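 On potency: count of GFP cancer cells still attached after washing and fixation.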
Conditions: SKOV3ip1-GFP adhesion/invasion on 3D omental model, fluorescence; activity change, negative = inhibition: at 45.8 µM (top of the series); series mostly up to 45.8 µM
Procedure, shortened: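 qHTS, 4-pt dose (0.36-46 umol/L); SKOV3ip1-GFP, 1,200 cells/well, no FBS; primary omental fibroblast/mesothelial co-culture 48 h pre-grown; 2 h RT + 16 h 37 C; PBS wash, 4% PFA; GFP count 488/509 nm.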
Potency means the concentration at half of the fitted maximal effect; tags describe the fitted curve by direction and shape.

SMILES | Potency | activity change, negative = inhibition
CC(CNC(=O)Cn1ncc2c3ccccc3n(Cc3cccc(Cl)c3)c2c1=O)c1ccccc1 (stereo not drawn) | inconclusive [inhibitor, partial curve, poor fit] | –
COc1ccc(-c2cc(C(C)=O)c(C)n2CCC(=O)Nc2cc(C)ccc2OC)cc1 | inactive | –
Cc1cc(C)c2c(CC(=O)Nc3nnc(C(C)C)s3)coc2c1 | inconclusive [inhibitor, single point] | –
CCc1ccc(NS(=O)(=O)c2ccc3[nH]cc(C(=O)NC4CCCC4)c(=O)c3c2)cc1 | inactive | –
Cc1ccc(S(=O)(=O)c2nc(-c3cccs3)oc2SCC(=O)Nc2cc(C)cc(C)c2)cc1 | inconclusive [inhibitor, single point] | –
CCOc1ccccc1CNC(=O)CCC(=O)N1CCSc2ccccc21 | inconclusive [inhibitor, partial curve, poor fit] | –
COc1ccc(S(=O)(=O)NCCc2sc3nc(-c4ccc(C)cc4)nn3c2C)cc1C | inconclusive [inhibitor, single point] | –
CN(C)c1ccc(NC(=O)Cn2cc(S(=O)(=O)Cc3ccccc3Cl)c3ccccc32)cc1 | inconclusive [inhibitor, partial curve, poor fit] | –
CCOC(=O)c1ccc(NC(=O)CSc2ncc(S(=O)(=O)c3ccc(C)c(Cl)c3)c(=O)[nH]2)cc1 | inactive | –
Clc1cccc(-n2ncc3c(NC4CCCCCC4)ncnc32)c1 | inconclusive [inhibitor, single point] | –
Cc1ccc(NC(=O)CCc2nc3cccnc3n2-c2ccccc2)cc1Cl | inconclusive [inhibitor, single point] | –
O=C(Nc1cn[nH]c1-c1nc2ccc(CN3CCOCC3)cc2[nH]1)NC1CC1 | inconclusive [inhibitor, single point] | –
CCC(C)n1c(=N)c(C(=O)NCc2ccco2)cc2c(=O)n3cc(C)ccc3nc21 (stereo not drawn) | inconclusive [inhibitor, single point] | –
COc1ccc(C(=O)N(Cc2ccco2)Cc2ccccc2F)cc1Cl | inconclusive [inhibitor, single point] | –
CC1CN(C(=O)CCC(=O)NCc2ccccc2)c2cc(Cl)ccc2O1 (stereo not drawn) | inconclusive [inhibitor, partial curve, poor fit] | –
Cc1ccc(Cl)cc1NC(=O)Cn1ncc2c(C)n(Cc3ccccc3F)c(C)c2c1=O | inconclusive [inhibitor, single point] | –
Cc1cccc(NC(=O)c2oc3ccc(S(=O)(=O)N4CCC5(CC4)OCCO5)cc3c2C)c1C | inconclusive [inhibitor, single point] | –
Cc1cc(C)c(NC(=O)Cn2c(=O)n(CCC(=O)NCc3ccc4c(c3)OCO4)c(=O)c3ccccc32)c(C)c1 | inactive | –
O=C1CC(c2ccccc2)Cc2[nH]c(=O)c(-c3nc(-c4cccc(Cl)c4)cs3)cc21 (stereo not drawn) | inconclusive [inhibitor, full curve, poor fit] | –
CC(C)Cn1c(=O)c2ccccc2n2c(-c3ccc(Br)cc3)nnc12 | inactive | –
O=C(c1ccccc1)N1CCc2cc(CNS(=O)(=O)c3ccccc3Cl)ccc21 | inconclusive [inhibitor, full curve, poor fit] | –

SMILES | Potency | activity change, negative = inhibition
COc1ccc2c(Sc3ccccc3)c(C(=O)NCCN(C)C)[nH]c2c1 | inconclusive [inhibitor, partial curve] | –
Cc1ccc(NC(=O)c2ccc3nc(Cc4ccccc4)oc3c2)cc1F | inconclusive [inhibitor, single point] | –
Cc1nc2cc(-c3cccc(F)c3)nn2c(C)c1CCC(=O)N1CCN(c2ccc(F)cc2)CC1 | inactive | –
Cc1cccc(-n2nnnc2S(C)(=O)=O)c1 | inconclusive [inhibitor, partial curve, poor fit] | –
C[C@@]12O[C@@H](C[C@]1(O)CO)n1c3ccccc3c3c4c(c5c6ccccc6n2c5c31)CNC4=O | inconclusive [inhibitor, single point] | –
COc1ccccc1Nc1c2c(nc3ccc(NC(=O)c4cccc(F)c4)cc13)CCCC2 | inconclusive [inhibitor, single point] | –
COc1cccc(C(=O)Nc2ccc(NC(=O)c3ccc(C(C)(C)C)cc3)cc2)c1 | inconclusive [inhibitor, single point] | –
O=C(Nc1cc(Cl)cc(Cl)c1)c1ccc(F)c(S(=O)(=O)NCc2ccccc2Cl)c1 | inconclusive [inhibitor, single point] | –
COc1ccc(CCNC(=O)CCCn2nc(C)c3sc4ccccc4c3c2=O)cc1OC | inactive | –
CSc1ccc(CCNC(=O)c2ccc(-n3c(C)cc4c3CCCC4)cc2)cc1 | inconclusive [inhibitor, single point] | –
Cc1cc(S(=O)(=O)Nc2ccc(O)c(Sc3nc4ccccc4s3)c2)ccc1Cl | inactive | –
Cc1ccc(C(=O)N2CCCCC2CCN2CCCCC2)cc1 (stereo not drawn) | inconclusive [inhibitor, single point] | –
O=C(NCCC1=CCCCC1)c1ccc2c(c1)N(Cc1ccccc1)C(=O)c1ccccc1S2=O (stereo not drawn) | inactive | –
COc1cc2c(cc1-c1c(C)noc1C)ncc1[nH]c(=O)n([C@H](C)c3ccccn3)c12 | inactive | –
COc1ccc(OC)c(CNC(=O)CSc2c3c(nc4cc(Cl)ccc24)CCCC3)c1 | inconclusive [inhibitor, full curve, poor fit] | –
COc1ccc(N2C(N)=C(C#N)C(c3cc(CN4CCOCC4)cs3)C3=C2CCCC3=O)cc1 (stereo not drawn) | inconclusive [inhibitor, single point] | –
Cc1cccn2c(=O)cc(COc3cccc(NC(=O)c4cccc(Cl)c4)c3)nc12 | inconclusive [inhibitor, single point] | –
COc1ccc(NC(=O)C2CCCN(c3nnc(C)c4c(C)n(-c5ccccc5)nc34)C2)cc1Cl (stereo not drawn) | inconclusive [inhibitor, partial curve, poor fit] | –
CCc1ccc(NC(=O)C(CC)n2c(=O)c(-c3ccccc3NC(C)=O)nc3ccccc32)cc1 (stereo not drawn) | – | inconclusive: -34.5% [inhibitor]
Cc1ccc(-c2cc(C(=O)N3CCN(S(=O)(=O)c4ccc(Br)cc4)CC3)[nH]n2)c(C)c1 | inconclusive [inhibitor, single point] | –
CC(=O)c1ccc(NC(=O)C2CCN(c3nnc(C)c4c(C)n(-c5ccccc5)nc34)CC2)cc1 | inconclusive [inhibitor, single point] | –

SMILES | Potency | activity change, negative = inhibition
COc1ccc(OC)c(S(=O)(=O)N2CCC(n3c(C)nc4cccnc43)CC2)c1 | inactive | –
COc1ccc(Nc2c3c(nc4ccccc24)CCC3)cc1Cl | inactive | –
Cc1ccc(-n2ncc3c(Nc4cccc(Cl)c4)ncnc32)c(C)c1 | active: 10 µM | –
CCN(CC)c1cc(C)c2cc(NC(=O)/C=C/c3cc(OC)c(OC)c(OC)c3)ccc2n1 | inconclusive [inhibitor, single point] | –
CCc1cccc(-n2nnc(-c3nsc(NC(=O)c4cccc(OC)c4)n3)c2C)c1 | inconclusive [inhibitor, single point] | –
Cc1ccc(C2C=C(c3ccccc3)Nc3nc(NS(=O)(=O)c4ccccc4)nn32)cc1 (stereo not drawn) | inactive | –
CCOc1ccc(CCNC(=O)c2cn(-c3ccc(OC)cc3)c(=O)c3ccccc23)cc1OCC | inconclusive [inhibitor, single point] | –
CCOc1ccc(CNC(=O)C2CCCN(c3nnc(C)c4c(C)n(-c5ccccc5)nc34)C2)cc1 (stereo not drawn) | inconclusive [inhibitor, single point] | –
CCOc1ccc(OCC)c(NC(=O)c2nnn(CC(=O)Nc3cc(Cl)ccc3OC)c2N)c1 | inconclusive [inhibitor, single point] | –
CCOC(=O)N1CCN(C(=O)c2ccc3c(c2)N(Cc2ccccc2F)C(=O)c2ccccc2S3(=O)=O)CC1 | inconclusive [inhibitor, single point] | –
Clc1ccc2c(c1)-n1cc(-c3ccccc3)nc1CO2 | inconclusive [inhibitor, single point] | –
COc1ccc(-c2nnc(C3CCN(S(=O)(=O)c4ccc(C)c(C)c4)CC3)o2)cc1 | inconclusive [inhibitor, single point] | –
COc1ccc(-c2cn3cccnc3n2)cc1NC(=O)c1cc(C)cc(C)c1 | inconclusive [inhibitor, single point] | –
Cc1cc(C)cc(NC(=O)c2cccc3c2C(=O)N(C2CCCCC2)C3)c1 | inactive | –
Cc1nc(-c2ccc(S(=O)(=O)Nc3ccc(C)c(N(C)C)c3)cc2)co1 | inactive | –
CC1CCN(c2oc(/C=C/c3ccc(F)cc3)nc2C#N)CC1 | inconclusive [inhibitor, partial curve, poor fit] | –
Cc1ccc(CNCc2c(C(=O)O)n(Cc3ccc(C)cc3)c3cc(C)ccc23)cc1 | inactive | –
NS(=O)(=O)c1cccc2c1C(=O)c1cccc(O)c1C2=O | inconclusive [inhibitor, full curve] | –
COc1ccccc1CCNS(=O)(=O)c1ccc(N2CCCCS2(=O)=O)cc1 | inactive | –
Cc1ccc(Cl)cc1-n1ncc2c(Nc3cccc(C)c3C)ncnc21 | inactive | –
CC1=C(c2ccc(C)c(C)c2)S(=O)(=O)N=C1N1CCC(C(=O)NC(C)Cc2ccco2)CC1 (stereo not drawn) | inconclusive [inhibitor, partial curve, poor fit] | –

Reference: PubChem BioAssay AID1963576 (National Center for Advancing Translational Sciences (NCATS), 2024)
